In the supplement of paper PMC4166925:
± gives the standard deviation of the averaged measurements. The full ranking holds about 33,000 sequences; the median of “E-score (dimensionless, -0.5 to 0.5)” is about -0.049, and the highest 2% start at about 0.37. The list shows a part of the results.

tested on: T1, PmTbr T-box DNA-binding domain (GST fusion); assay: PBM E-score of 8-mer (E-score (dimensionless, -0.5 to 0.5)); Tbr is Tbrain of the sea star Patiria miniata (Pm) or the sea urchin Strongylocentrotus purpuratus (Sp); higher = stronger binding preference; most listed sequences are background and not binding sites; conditions: the construct has about 5 more residues each side
T1 sequence: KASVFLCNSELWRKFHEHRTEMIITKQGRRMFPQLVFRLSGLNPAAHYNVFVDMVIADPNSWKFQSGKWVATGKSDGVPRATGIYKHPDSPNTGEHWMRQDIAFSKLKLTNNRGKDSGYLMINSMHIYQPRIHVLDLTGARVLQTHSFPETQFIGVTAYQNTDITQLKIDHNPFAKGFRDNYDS
How it was run: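 Each ungapped 8-mer received an enrichment E-score from the Universal PBM Analysis Suite, averaged over duplicate arrays. The proteins were Tbr T-box DNA-binding domains, covering the whole T-box plus about five flanking residues, fused to GST and expressed in BL21 E. coli at 20 °C before glutathione affinity purification. Universal Agilent oligonucleotide arrays were made double-stranded by primer extension and incubated with 200 nM protein in PBS (pH 7.5). The arrays were then scanned and quantified, and every 8-mer was scored from probe intensities.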

| Sequence | PBM E-score of 8-mer |
| --- | --- |
| AGGTTATG | 0.0583 ± 0.03 |
| AGCTCGAT | -0.115 ± 0.017 |
| GATCTGGA | -0.112 ± 0.034 |
| GAAGCTAA | 0.0225 ± 0.034 |
| CTGTAAAA | 0.0314 ± 0.081 |
| GCTACTCC | -0.051 ± 0.068 |
| ACAGTATA | -0.0828 ± 0.011 |
| GGCATCTA | -0.0946 ± 0.018 |
| GGACGTCA | -0.154 ± 0.061 |
| ACAAACTA | -0.094 ± 0.026 |
| ATTCTTAG | -0.347 ± 0.09 |
| ACACCCTG | 0.426 ± 0.026 |
| CCCCCGTC | -0.178 ± 0.1 |
| AATTCTCG | 0.154 ± 0.0096 |
| GGCATGAA | -0.0787 ± 0.006 |
| AGAACGCC | -0.012 ± 0.039 |
| AATGTAAT | -0.138 ± 0.0033 |
| CCGCGTCC | 0.0682 ± 0.093 |
| AATGCAAA | -0.1 ± 0.028 |
| GATTAACC | -0.0885 ± 0.017 |
| AGAGTCCG | -0.217 ± 0.034 |
| ACCTTGTC | 0.233 ± 0.026 |
| AGAGTTCC | -0.2201 ± 0.00095 |
| ACTCCGTG | -0.123 ± 0.0086 |
| GATATACA | -0.0535 ± 0.015 |

| Sequence | PBM E-score of 8-mer |
| --- | --- |
| CTATGCCC | -0.353 ± 0.066 |
| ATTACGCA | 0.0306 ± 0.061 |
| AAACTGGG | -0.0921 ± 0.02 |
| GACCATCC | -0.242 ± 0.023 |
| CGAGGTCC | -0.166 ± 0.06 |
| AAACCTCT | -0.362 ± 0.051 |
| ATTCCATG | 0.039 ± 0.036 |
| CTCCTAAG | -0.218 ± 0.056 |
| GGGTGATA | 0.368 ± 0.0085 |
| CCGATAAA | 0.0411 ± 0.039 |
| CACAGACA | 0.0252 ± 0.1 |
| ATGCATTG | -0.113 ± 0.082 |
| AGGGGCCG | 0.00124 ± 0.011 |
| CAGATGGA | -0.078 ± 0.026 |
| CGCGATAA | 0.343 ± 0.027 |
| AACAGGTC | 0.14 ± 0.036 |
| ATGAAAAC | -0.268 ± 0.056 |
| TGACAGAA | 0.00962 ± 0.028 |
| ACTACACA | -0.0102 ± 0.037 |
| ATGTCTGC | -0.0513 ± 0.028 |
| GCACTATA | -0.0181 ± 0.0023 |
| AACGACCC | -0.0732 ± 0.075 |
| TCGCGTCA | 0.273 ± 0.061 |
| GTCCATTA | -0.198 ± 0.018 |
| CCCGGAGC | -0.0554 ± 0.069 |

| Sequence | PBM E-score of 8-mer |
| --- | --- |
| CCCACTCC | -0.0608 ± 0.036 |
| AAGCCACA | -0.0358 ± 0.085 |
| CATCTCCG | -0.083 ± 0.045 |
| GCACACCA | 0.219 ± 0.03 |
| ATTCTTCC | -0.171 ± 0.015 |
| CCGCCATA | 0.0556 ± 0.0067 |
| CACAGCAC | 0.183 ± 0.086 |
| ACAAGTAC | 0.059 ± 0.048 |
| AATTTTCG | 0.127 ± 0.11 |
| AGGACAAG | -0.0489 ± 0.02 |
| GGCTACAC | -0.00692 ± 0.072 |
| GGATCAAA | -0.0675 ± 0.028 |
| GACAGGTA | 0.145 ± 0.026 |
| AGGGAGAG | -0.0787 ± 0.011 |
| AAAGACGA | -0.0689 ± 0.069 |
| GGATCGCC | -0.236 ± 0.018 |
| GAAGGGAC | -0.0175 ± 0.019 |
| ATGTTTCA | -0.174 ± 0.074 |
| CCGGGACC | -0.245 ± 0.023 |
| AAGACCAT | -0.203 ± 0.042 |
| GAGATCAA | -0.132 ± 0.04 |
| CGTATATA | 0.0791 ± 0.067 |
| CTCACAAG | 0.122 ± 0.017 |
| CCTATAGA | -0.0752 ± 0.027 |
| CCCCGAAG | -0.218 ± 0.1 |

| Sequence | PBM E-score of 8-mer |
| --- | --- |
| AAGCTGAT | -0.145 ± 0.033 |
| AGTTCTCC | -0.06 ± 0.059 |
| ATCCATGG | -0.184 ± 0.01 |
| CTAAATCC | -0.0121 ± 0.0011 |
| GCTTGTAA | -0.0775 ± 0.029 |
| CGGGATTC | -0.136 ± 0.032 |
| AACGCTAA | 0.151 ± 0.019 |
| CTTTGGTC | -0.0786 ± 0.017 |
| AGGTAGGC | 0.00539 ± 0.0033 |
| AGCACTAA | 0.0398 ± 0.043 |
| CACGTCGA | 0.204 ± 0.022 |
| CATTGAGG | -0.224 ± 0.021 |
| CCTTGGTA | 0.0017 ± 0.049 |
| ATGAAATC | -0.224 ± 0.016 |
| GGAGTACC | -0.068 ± 0.086 |
| ACACCCGA | 0.422 ± 0.012 |
| GCTGAACC | -0.137 ± 0.028 |
| AAGATTCC | -0.0403 ± 0.037 |
| CGTGTATC | -0.109 ± 0.058 |
| CCCCCTAC | -0.0624 ± 0.013 |
| CCAATGAA | -0.149 ± 0.029 |
| ATATAGTC | -0.0502 ± 0.042 |
| ACCACTGA | -0.0716 ± 0.011 |
| GGAACCGA | -0.105 ± 0.066 |
| AGTATATG | 0.0355 ± 0.073 |

| Sequence | PBM E-score of 8-mer |
| --- | --- |
| CATTGACA | 0.225 ± 0.027 |
| CGCCCGGC | 0.0104 ± 0.12 |
| AGGGCGTG | 0.21 ± 0.011 |
| CCCTCGTA | -0.168 ± 0.031 |
| AACGCCAT | 0.216 ± 0.0046 |
| CCAACGCG | 0.136 ± 0.027 |
| ATGACCAT | -0.23 ± 0.0083 |
| CTGCATGA | -0.23 ± 0.063 |
| AACGACGT | 0.0423 ± 0.019 |
| CACGAAGG | 0.0208 ± 0.029 |
| CCCCTAAC | -0.0953 ± 0.037 |
| CCCGGCGA | -0.128 ± 0.02 |
| CATCACAG | 0.109 ± 0.038 |
| CTATCTTC | -0.137 ± 0.02 |
| GCAAACGA | -0.129 ± 0.024 |
| ACGCGAGA | 0.255 ± 0.0031 |
| GAAGCGGA | 0.0167 ± 0.00077 |
| AGGACTAT | -0.222 ± 0.048 |
| GAGCAAAC | -0.0719 ± 0.032 |
| GTTCGAAA | -0.132 ± 0.091 |
| AAGTTTTA | -0.0533 ± 0.12 |
| ATAGGTTC | -0.0931 ± 0.17 |
| AACCCCCT | -0.163 ± 0.023 |
| CTTATGAA | -0.0966 ± 0.016 |
| TACAGTAA | 0.0205 ± 0.025 |

| Sequence | PBM E-score of 8-mer |
| --- | --- |
| CGTTATCA | 0.238 ± 0.012 |
| ATTACATG | -0.0706 ± 0.076 |
| ATGACGGG | -0.0303 ± 0.024 |
| CATGGAAG | -0.321 ± 0.032 |
| AAAGTAGC | 0.0904 ± 0.058 |
| AAGCAATC | -0.119 ± 0.034 |
| ACTCTGTA | -0.143 ± 0.013 |
| GTGGGGTA | -0.0459 ± 0.015 |
| GAGGTTGC | 0.157 ± 0.015 |
| AGAACTCC | -0.168 ± 0.029 |
| TGTTCGAA | -0.00594 ± 0.024 |
| AACATGAA | 0.032 ± 0.015 |
| ACTCGTTG | 0.0179 ± 0.028 |
| GAAATCGA | -0.00937 ± 0.048 |
| CCCTTCGA | -0.0585 ± 0.062 |
| AGCTTCAA | -0.195 ± 0.05 |
| AGAATCCT | -0.149 ± 0.076 |
| TAGTGTCA | 0.395 ± 0.027 |
| AAGACAGC | -0.0516 ± 0.02 |
| ATTTTAAC | 0.0282 ± 0.089 |
| ATTCACCC | -0.18 ± 0.042 |
| TCCCGGAA | -0.194 ± 0.036 |
| GGAATTAC | -0.218 ± 0.017 |
| CTCGTTTC | -0.109 ± 0.076 |
| CGAGGCAC | 0.0808 ± 0.06 |

| Sequence | PBM E-score of 8-mer |
| --- | --- |
| CCGTAATA | -0.236 ± 0.04 |
| CGAGAGAA | 0.102 ± 0.021 |
| TACGTTGA | -0.0664 ± 0.069 |
| CGCTCTCA | 0.0857 ± 0.044 |
| AATAGGAT | -0.144 ± 0.012 |
| AGGTAGAG | -0.142 ± 0.064 |
| CGGCAGTA | -0.128 ± 0.0017 |
| ACAGCGAC | 0.0143 ± 0.12 |
| ATTCCCGG | -0.228 ± 0.032 |
| TTAAGAAA | -0.165 ± 0.066 |
| AAAAATAA | -0.104 ± 0.092 |
| CACGTGGG | 0.0958 ± 0.02 |
| AGAAAATA | 0.0323 ± 0.03 |
| CCCGGTCC | -0.294 ± 0.037 |
| GCTCAAGC | -0.268 ± 0.0031 |
| GGCCCATA | -0.341 ± 0.028 |
| AAGCTTGC | 0.0506 ± 0.0071 |
| GGACGCTA | -0.0248 ± 0.14 |
| CCGTAGAA | -0.338 ± 0.034 |
| ACCGCGAC | 0.18 ± 0.0039 |
| ACCTGCCT | 0.0604 ± 0.069 |
| CTAGATAG | 0.00035 ± 0.063 |
